From the supplement of paper PMC6135742
Where a name gives a salt, the structure may show the parent alone. ± gives the standard deviation of the averaged measurements. Whole data set: some 2,600 compounds, median “MBP+ mature oligodendrocyte number relative to DMSO vehicle control” near -0.34, cut for the highest 2% near 13. The list shows a part of the results.

Tested on: jimpy (Plp1 jimpy) mouse iPSC-derived oligodendrocyte progenitor cells
Assay: MBP+ mature oligodendrocyte number relative to DMSO vehicle control (SDs above negative control mean); higher = more surviving jimpy oligodendrocytes (rescue)
Details: 10 µM; 3 days
Experimental: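 Primary phenotypic screen of >3,000 bioactive compounds (Selleck L1700 and Sigma LO1280 libraries) at a single dose of 10 µM. Compounds were added to jimpy (Plp1 mutant) mouse iPSC-derived OPCs at the start of thyroid hormone-induced oligodendrocyte differentiation, one well per compound in 384-well plates. After 3 days cells were stained for MBP, Sox10 and DAPI and imaged with an Operetta system. MBP+ oligodendrocyte number and total cell number were expressed as the number of SDs above the mean of the DMSO negative control on the same plate (n=16 control wells per plate). Hits were defined as >=4 SD for oligodendrocytes and >=2 SD for total cells.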

Row | SMILES | MBP+ mature oligodendrocyte number
1 | O=C(O)CNC(=O)c1c(O)c2ccccc2n(Cc2ccccc2)c1=O | 2.41
2 | CC(CCc1ccccc1)NC(C)C(O)c1ccc(O)cc1 (stereo not drawn) [Nylidrin hydrochloride] | 0.539
3 | NNC(=O)c1ccc(O)cc1 [4-Hydroxybenzhydrazide] | -0.805
4 | C[C@]12CC[C@H]3[C@@H](CC[C@@]45O[C@@H]4C(O)=C(C#N)C[C@]35C)[C@@H]1CC[C@@H]2O [Trilostane] | 0.109
5 | CNCCc1c[nH]c2ccc(O)cc12 [N-omega-Methyl-5-hydroxytryptamine oxalate salt] | -0.323
6 | NCCCP(=O)(O)O [3-Aminopropylphosphonic acid] | -0.825
7 | COc1ccc(Cc2nccc3cc(OC)c(OC)cc23)cc1OC [Papaverine hydrochloride] | 10.5
8 | CNCC(=O)c1ccc(O)c(O)c1 [Adrenalone HCl] | 4.47
9 | O=C[C@H](Cl)[C@@H](O)[C@H](O)[C@H](O)CO [2-Chloro-2-deoxy-D-glucose] | -0.387
10 | NNC(N)=O [Semicarbazide hydrochloride] | 0.539
11 | CC(C)N(CCNC(=O)CN1CCCC1=O)C(C)C [Pramiracetam] | -0.556
12 | C=C(C)[C@H]1Cc2c(ccc3c2O[C@@H]2COc4cc(OC)c(OC)cc4[C@@H]2C3=O)O1 [Rotenone] | < -3.85
13 | COC(=O)C1=CCCN(C)C1 [Arecoline hydrobromide] | 0.706
14 | COC(=O)C1=CCCN(C)C1 [Arecoline] | 2.8
15 | Fc1ccc(C(OCCN2CCN(CCCc3ccccc3)CC2)c2ccc(F)cc2)cc1 | < -4.47
16 | CC(=O)Nc1ccc(OC[C@](C)(O)C(=O)Nc2ccc([N+](=O)[O-])c(C(F)(F)F)c2)cc1 [Andarine] | 2.12
17 | CC(N)Cc1c[nH]c2ccc(O)cc12 (stereo not drawn) [alpha-Methyl-5-hydroxytryptamine maleate] | -0.284
18 | C[C@](O)(COc1ccc(C#N)cc1)C(=O)Nc1ccc(C#N)c(C(F)(F)F)c1 | 3.69
19 | CCCN(CCC)C1CCc2ccc(O)cc2C1 (stereo not drawn) [R-(+)-7-Hydroxy-DPAT hydrobromide] | -0.125
20 | c1ccc(C2(c3ccccc3)CC2C2=NCCN2)cc1 (stereo not drawn) [Cibenzoline succinate] | -1.7
21 | CN1CCC[C@@H]1Cc1c[nH]c2ccc(Nc3ncccc3[N+](=O)[O-])cc12 | -2.28
22 | O=C1CCCN1CC#CCN1CCCC1 [Oxotremorine sesquifumarate salt] | -0.637
23 | C[C@]12N[C@H](Cc3ccccc31)c1ccccc12 [MK-801 (Dizocilpine)] | -2.12
24 | CCCN1CCc2cccc3c2[C@H]1Cc1ccc(O)c(O)c1-3 [R(-)-Propylnorapomorphine hydrochloride] | -4.1
25 | CCN1C[C@]2(COC)[C@H](O)C[C@H](OC)[C@@]34[C@@H]5C[C@@]6(O)[C@H](OC(=O)c7ccccc7)[C@@H]5[C@@](OC(C)=O)([C@@H]([C@H](OC)[C@H]23)[C@@H]14)[C@@H](O)[C@@H]6OC [Aconitine] | 0.196

Row | SMILES | MBP+ mature oligodendrocyte number
26 | CNc1ccc2oc(C[C@H]3O[C@@]4(CC[C@H]3C)O[C@H]([C@H](C)C(=O)c3ccc[nH]3)[C@H](C)C[C@H]4C)nc2c1C(=O)O [Calcimycin] | < -3.34
27 | c1ccc2c(c1)[I+]c1ccccc1-2 [Diphenyleneiodonium chloride] | < -4.47
28 | CC(N)Cc1cccc(C(F)(F)F)c1 (single isomer, unassigned; (+)) [(+)-Norfenfluramine hydrochloride] | 0.753
29 | NC(=O)COc1c(F)cc(SCCNS(=O)(=O)c2ccccc2)cc1F | -1.7
30 | CCCN1CCC[C@H](c2cccc(O)c2)C1 [R(+)-3PPP hydrochloride] | 1.07
31 | CCN(C)C(=O)Oc1cccc([C@H](C)N(C)C)c1 [Rivastigmine Tartrate] | 0.793
32 | CCC1(c2ccc(N)cc2)CCC(=O)NC1=O (stereo not drawn) [Aminoglutethimide] | -1.1
33 | C[N+]1(C)CCN(c2ccccc2)CC1 [1,1-Dimethyl-4-phenyl-piperazinium iodide] | -1.43
34 | CCn1cc(C(=O)O)c(=O)c2cc3c(cc21)OCO3 [Oxolinic acid] | -0.951
35 | C[C@]12CC[C@H](O)C[C@@H]1CC[C@@H]1[C@@H]2CC[C@]2(C)C(=O)CC[C@@H]12 [Epiandrosterone] | -5.45
36 | C[N+]1(C)[C@@H]2C[C@@H](OC(=O)[C@H](CO)c3ccccc3)C[C@H]1[C@@H]1O[C@@H]12 [Methscopolamine] | -1.19
37 | C[N+]1(C)[C@@H]2C[C@@H](OC(=O)[C@H](CO)c3ccccc3)C[C@H]1[C@@H]1O[C@@H]12 [(-)-Scopolamine methyl bromide] | -1.5
38 | CN(C(=O)Cc1ccc(Cl)c(Cl)c1)C(CN1CCCC1)c1cccc(OCC(=O)O)c1 (stereo not drawn) [ICI 204,448 hydrochloride] | 2.89
39 | NCCc1ccc(O)cc1 [4-Hydroxyphenethylamine hydrochloride] | 0.182
40 | NCC(O)c1ccc(O)cc1 (racemic) [(+,-)-Octopamine HCl] | 1.14
41 | NCC(O)c1ccc(O)cc1 (racemic) [(±)-Octopamine hydrochloride] | 0.186
42 | Clc1cc(I)cc(Cl)c1NC1=NCCN1 [p-Iodoclonidine hydrochloride] | 0.343
43 | C[C@@H](N)Cc1cnc[nH]1 [Histamine, R(-)-alpha-methyl-, dihydrochloride] | 0.136
44 | C[C@@H]1O[C@@H](O[C@H]2C[C@@H](O)[C@]3(CO)[C@H]4[C@H](O)C[C@]5(C)[C@@H](C6=CC(=O)OC6)CC[C@]5(O)[C@@H]4CC[C@]3(O)C2)[C@H](O)[C@H](O)[C@H]1O [Ouabain] | 10.3 ± 9.9
45 | O=C(O[C@H]1C[N+]2(CCCOc3ccccc3)CCC1CC2)C(O)(c1cccs1)c1cccs1 [Aclidinium Bromide] | 10.7
46 | NCCc1c[nH]c2ccccc12 [Tryptamine hydrochloride] | -0.433
47 | Clc1ccc(N2C[C@H]3CC[C@@H](C2)N3)nn1 | 1.03
48 | CC[C@@H]1/C=C/C=C/C[C@H](C)[C@H](O)[C@](C)(O)C(=O)[C@H](C)[C@@H](O)[C@H](C)C(=O)[C@H](C)[C@@H](O)[C@H](C)/C=C/C(=O)O[C@H]2[C@@H](C)[C@@H](CC1)O[C@@]1(CC[C@@H](C)[C@@H](C[C@H](C)O)O1)[C@@H]2C [Oligomycin A] | < -6.7
49 | Cc1cc(SCc2sc(-c3ccc(C(F)(F)F)c(F)c3)nc2C)ccc1OCC(=O)O | 6.98
50 | CC(C)(C)[C@]1(O)CC2OC(=O)CC23C(=O)OC2OC(=O)[C@H](O)C231 (stereo partly drawn) [Bilobalide] | -0.444

Row | SMILES | MBP+ mature oligodendrocyte number
51 | Cc1ccc(S(=O)(=O)N[C@@H](CCCCN)C(=O)CCl)cc1 [Na-p-Tosyl-L-lysine chloromethyl ketone hydrochloride] | -1.25
52 | CCCN1CCC[C@@H](c2cccc(O)c2)C1 [S(-)-3PPP hydrochloride] | -0.997
53 | O=C(Oc1ccc([N+](=O)[O-])cc1)N1CCC(C(O)(c2ccc3c(c2)OCO3)c2ccc3c(c2)OCO3)CC1 | 6.91
54 | O=C1CCC[C@@H]2[C@H]3CCCN4CCC[C@@H](CN12)[C@@H]34 [(+)-Matrine] | 6.66
55 | CCNC(=O)[C@H]1O[C@@H](n2cnc3c(N)ncnc32)[C@H](O)[C@@H]1O [5'-N-Ethylcarboxamidoadenosine] | -1.9
56 | COc1cc2c(cc1OC)C1CC(=O)C(CC(C)C)CN1CC2 (stereo not drawn) [Tetrabenazine] | 1.68
57 | Cc1cccc(C)c1NC1=NCCCS1 [Xylazine HCl] | 0.283
58 | Cc1cccc(C)c1NC1=NCCCS1 [Xylazine hydrochloride] | -0.747
59 | CN1CC[C@@]2(C)c3cc(OC(=O)Nc4ccccc4)ccc3N(C)[C@@H]12 [Phenserine] | 1.5
60 | N#CCCN [3-Aminopropionitrile fumarate] | -0.59
61 | Oc1ccc2c3c1O[C@H]1c4oc5ccccc5c4C[C@@]4(O)[C@@H](C2)N(CC2CC2)CC[C@]314 [Naltriben methanesulfonate] | -3.19
62 | O=P1(NCCCl)OCCCN1CCCl (stereo not drawn) [Ifosfamide] | -0.327
63 | NC(=O)CN1CCCC1=O [Piracetam] | 0.172 ± 1.6
64 | CC(=O)NBr [N-Bromoacetamide] | -0.668
65 | Cc1c2ccncc2c(C)c2c1[nH]c1ccccc12 [Ellipticine] | < -4.47
66 | CC(C)NP(=O)(NC(C)C)OP(=O)(NC(C)C)NC(C)C [Tetraisopropyl pyrophosphoramide] | -0.0327
67 | CC(=O)OCC1=C(C(=O)O)N2C(=O)[C@@H](N)[C@H]2SC1 [7-Aminocephalosporanic acid] | 2.63
68 | C=C(C)[C@@H]1[C@H]2OC(=O)[C@@H]1[C@]1(O)C[C@H]3OC34C(=O)O[C@H]2[C@@]41C.CC(C)(O)[C@@H]1[C@H]2OC(=O)[C@@H]1[C@]1(O)C[C@H]3OC34C(=O)O[C@H]2[C@@]41C (stereo partly drawn) [Picrotoxin] | -1.26
69 | CCCN(CCC)[C@@H]1CCc2cccc(O)c2C1 [R-(+)-8-Hydroxy-DPAT hydrobromide] | -1.22
70 | C#CCN[C@H](C)Cc1ccccc1 [R-(-)-Desmethyldeprenyl hydrochloride] | 1.44
71 | CC(=O)OC12COC1CC(O)C1(C)C(=O)C(O)C3=C(C)C(O)CC(O)(C(OC(=O)c4ccccc4)C21)C3(C)C (stereo not drawn) [10-Deacetylbaccatin-III] | -2.51
72 | CCCN1CCc2cc(O)cc3c2[C@H]1Cc1ccc(O)c(O)c1-3 [R(-)-2,10,11-Trihydroxy-N-propylnoraporphine hydrobromide] | -3.11
73 | C#C[C@]1(O)C=C[C@H]2[C@@H]3CCC4=CC(=O)CC[C@@H]4[C@H]3CC[C@@]21CC [Gestodene] | 3.51
